Bacterial growth in Mueller-Hinton broth at 37 °C with the drug at the dose given, alone or with nitroxoline. Checkerboards on E. coli BW25113: OD600 at the end of exponential growth as a fraction of no-drug wells. Colistin series: OD595 at 10.75 h as a fraction of the colistin-free well. 1 = full growth, lower = more inhibition. No active / inactive call per well. Checkerboard doses stop near each drug's IC75, and their values pile up at 1, as if capped there. Colistin and gentamicin are mixtures; one drawing stands for each.
Tested on: Escherichia coli BW25113
Assay: growth relative to no-drug wells (fraction of no-drug control); higher = more growth, less inhibition
Protocol: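 8 x 8 checkerboard in cation-adjusted Mueller-Hinton broth at 37 °C; OD600 at the end of exponential growth as a fraction of no-drug wells, two biological replicates.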

CNC(C)C1CCC(N)C(OC2C(N)CC(N)C(OC3OCC(C)(O)C(NC)C3O)C2O)O1 (stereo unspecified) [Gentamicin] + Oc1ccc([N+](=O)[O-])c2cccnc12 [nitroxoline]
growth
Settings	nitroxoline concentration 0.136 µg/ml	nitroxoline concentration 0.255 µg/ml	nitroxoline concentration 0.374 µg/ml	nitroxoline concentration 0.493 µg/ml	nitroxoline concentration 0.612 µg/ml	nitroxoline concentration 0.731 µg/ml	nitroxoline concentration 0.85 µg/ml
0.035 µg/ml	1	0.915	0.834	0.707	0.619	0.511	0.477
0.06 µg/ml	0.926	0.889	0.768	0.685	0.599	0.51	0.471
0.07 µg/ml	0.928	0.851	0.767	0.672	0.558	0.495	0.502
0.12 µg/ml	0.858	0.79	0.658	0.61	0.587	0.503	0.502
0.14 µg/ml	0.754	0.797	0.628	0.584	0.548	0.475	0.468
0.24 µg/ml	0.339	0.465	0.346	0.37	0.403	0.255	0.312
0.28 µg/ml	0.0287	0.349	0.387	0.452	0.408	0.32	0.265

C[C@@H](O)[C@H]1C(=O)N2C(C(=O)O)=C(SCCNC=N)C[C@H]12 [Imipenem] + Oc1ccc([N+](=O)[O-])c2cccnc12 [nitroxoline]
growth
Settings	nitroxoline concentration 0.136 µg/ml	nitroxoline concentration 0.255 µg/ml	nitroxoline concentration 0.374 µg/ml	nitroxoline concentration 0.493 µg/ml	nitroxoline concentration 0.612 µg/ml	nitroxoline concentration 0.731 µg/ml	nitroxoline concentration 0.85 µg/ml
0.025 µg/ml	1	0.925	0.812	0.651	0.563	0.527	0.48
0.043 µg/ml	0.868	0.8531	0.771	0.642	0.541	0.52	0.5198
0.05 µg/ml	0.777	0.806	0.7868	0.674	0.542	0.525	0.505
0.086 µg/ml	0.569	0.662	0.689	0.648	0.595	0.502	0.511
0.1 µg/ml	0.444	0.632	0.691	0.631	0.604	0.535	0.473
0.172 µg/ml	0.219	0.334	0.439	0.4375	0.403	0.39	0.383
0.2 µg/ml	0.228	0.203	0.322	0.329	0.36	0.305	0.316

CO/N=C(\C(=O)N[C@@H]1C(=O)N2C(C(=O)[O-])=C(C[N+]3(C)CCCC3)CS[C@H]12)c1csc(N)n1 [Cefepime] + Oc1ccc([N+](=O)[O-])c2cccnc12 [nitroxoline]
growth
Settings	nitroxoline concentration 0.12 µg/ml	nitroxoline concentration 0.225 µg/ml	nitroxoline concentration 0.33 µg/ml	nitroxoline concentration 0.435 µg/ml	nitroxoline concentration 0.54 µg/ml	nitroxoline concentration 0.645 µg/ml	nitroxoline concentration 0.75 µg/ml
0.004 µg/ml	0.887	0.774	0.776	0.596	0.628	0.617	0.565
0.0075 µg/ml	0.854	0.757	0.73	0.618	0.667	0.605	0.565
0.011 µg/ml	0.912	0.843	0.781	0.716	0.66	0.626	0.558
0.0145 µg/ml	0.841	0.787	0.707	0.74965	0.627	0.589	0.573
0.018 µg/ml	0.73	0.726	0.717	0.706	0.673	0.613	0.521
0.0215 µg/ml	0.492	0.57	0.663	0.651	0.629	0.587	0.557
0.025 µg/ml	0.22	0.4275	0.436	0.606	0.628	0.608	0.569

Oc1cccc2cccnc12 [8-Hydroxyquinoline] + Oc1ccc([N+](=O)[O-])c2cccnc12 [nitroxoline]
growth
Settings	nitroxoline concentration 0.136 µg/ml	nitroxoline concentration 0.255 µg/ml	nitroxoline concentration 0.374 µg/ml	nitroxoline concentration 0.493 µg/ml	nitroxoline concentration 0.612 µg/ml	nitroxoline concentration 0.731 µg/ml	nitroxoline concentration 0.85 µg/ml
0.125 µg/ml	1	1	0.919	0.624	0.556	0.372	0.295
0.215 µg/ml	1	0.987	0.687	0.514	0.438	0.351	0.211
0.25 µg/ml	1	0.968	0.639	0.529	0.379	0.248	0.203
0.43 µg/ml	1	0.854	0.668	0.535	0.337	0.208	0.176
0.5 µg/ml	1	0.905	0.684	0.461	0.42	0.215	0.175
0.86 µg/ml	0.9962	0.72	0.518	0.362	0.279	0.224	0.13
1 µg/ml	0.96	0.69	0.483	0.252	0.259	0.161	0.114

From the supplement of paper PMC12015411
